{"source": "PubChem BioAssay AID686978", "about": "(National Center for Advancing Translational Sciences (NCATS), 2013)", "note": "“And” between values parts separate entries of the source, which are not always exact repeats. Equal values may be shown once. In all, about 420,000 compounds went through this assay and about 64,000 (15%) were called active. Inconclusive means that the source gave no clear call. Such entries were picked first, then a sample of the others. Calls follow the shape of the dose curve; as a rule, active = well fitted inhibition curve with a large enough effect; inconclusive = small, poorly fitted or top-dose-only effect; inactive = flat fitted curve, though single readings scatter. Potencies of inconclusive entries are doubtful fits and often do not repeat. % is scaled to controls: 0 for no effect and ±100 for the full control effect; potency is read from the fitted curve at half-maximal effect; tags tell the direction and shape of the fitted curve.", "data": [{"test": "qHTS for Inhibitors of human tyrosyl-DNA phosphodiesterase 1 (TDP1): qHTS in cells in absence of CPT; also: nearly all actives have a fitted effect of over 55% in size", "conditions": "DT40 Tdp1-/- hTDP1 cells, no CPT, ATP luminescence, 48 h; activity change, negative = growth inhibition: at 46.2 µM (top of the series) unless noted", "in_short": "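Growth kinetics read by CellTiter-Glo luminescence after ≥48 hr at 37 °C. Cells: DT40 Tdp1-/- stably carrying human TDP1, 400 per well, compound exposure in the absence of CPT (DMSO vehicle).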", "values": [{"smiles": "CCOC(=O)C1Cn2c(nc3c(c2=O)C2(CCCC2)Cc2ccccc2-3)S1", "note": "(stereo not drawn)", "Potency": "inconclusive: 23.1 µM [inhibitor, single point]"}, {"smiles": "CCOC(=O)c1c(NC(=O)C2C3C=CC(C3)C2C(=O)O)sc2c1CCCC2", "note": "(stereo not drawn)", "Potency": "inconclusive: 25.9 µM [inhibitor, single point]"}, {"smiles": "C=C[C@@H]1c2cc(C)ccc2N(S(=O)(=O)c2ccc(C)cc2)[C@H](c2ccccc2C(F)(F)F)C1(C#N)C#N", "Potency": "inconclusive: 12.6 µM [inhibitor, partial curve, poor fit] and inconclusive: 18.4 µM [inhibitor, single point]"}, {"smiles": "CCOC(=O)c1cnc(N2CCN(c3ccc(C)cc3C)CC2)c2ccccc12", "Potency": "inconclusive: 29.1 µM [inhibitor, single point]"}, {"smiles": "CC1=NNC(=O)C1C(c1ccc(Cl)cc1)C(C#N)C#N", "note": "(stereo not drawn)", "Potency": "inconclusive: 29.1 µM [inhibitor, single point]"}, {"smiles": "COc1cc(-c2noc(C)c2C(=O)N[C@@H](CO)Cc2ccccc2)cc(OC)c1OC", "Potency": "inconclusive: 29.1 µM [inhibitor, single point]"}, {"smiles": "Cc1ccccc1NC(=O)C1CCCN1S(=O)(=O)c1cccc2cccnc12", "note": "(stereo not drawn)", "Potency": "inconclusive: 29.1 µM [inhibitor, single point]"}, {"smiles": "COc1cccc(NC(=O)C2(C)CCN2Cc2ccccc2Cl)c1", "note": "(stereo not drawn)", "Potency": "active: 25.9 µM"}, {"smiles": "CCn1c(=O)c2cc(C(=O)NC(C)C)sc2c2ccccc21", "Potency": "inconclusive: 25.9 µM [inhibitor, single point]"}, {"smiles": "COCCN(C(=O)c1ccc(COc2ccccc2)o1)c1c(N)n(CC(C)C)c(=O)[nH]c1=O", "activity change, negative = growth inhibition": "inactive: -4.2%"}, {"smiles": "CC(=O)Oc1ccc2c(C)cc(=O)oc2c1", "Potency": "inconclusive: 5.17 µM [inhibitor, partial curve]"}, {"smiles": "Cc1ccc(N2C(=O)c3ccccc3C2Nc2ccc(S(=O)(=O)N3CCOCC3)cc2)nc1", "note": "(stereo not drawn)", "Potency": "inconclusive: 9.2 µM [inhibitor, partial curve]"}, {"smiles": "O=C(NCCCC(=O)N1CCCCC1)c1ccc(Cl)cc1", "activity change, negative = growth inhibition": "inactive: -0.961%"}, {"smiles": "CSc1cccc(NC(=O)CN2C(=O)COc3ccc(S(=O)(=O)N4CCC(C)CC4)cc32)c1", "Potency": "inconclusive: 23.1 µM [inhibitor, single point]"}, {"smiles": "COc1ccccc1Cc1c(C2CCCCC2)nc2ccc(C)cn12", "Potency": "active: 23.1 µM"}, {"smiles": "NS(=O)(=O)c1ccc(NC(=O)Cc2c(F)cccc2Cl)cc1", "activity change, negative = growth inhibition": "inactive: -7.74%"}, {"smiles": "Cc1sc2nc(SCC(=O)N3CCCC3)[nH]c(=O)c2c1C", "Potency": "inconclusive: 29.1 µM [inhibitor, single point]"}, {"smiles": "C=CCNC(=S)Nc1cc(C)ccn1", "Potency": "inconclusive: 29.1 µM [inhibitor, single point]"}, {"smiles": "O=C1[C@@H](c2ccccc2)[C@@H](c2ccccc2)N1c1cccnc1", "Potency": "active: 8.2 µM"}, {"smiles": "Cc1ccc(C)c(-n2c3nc(=O)[nH]c(=O)c-3cc3cc([N+](=O)[O-])ccc32)c1", "Potency": "active: 0.82 µM"}, {"smiles": "CC1CCN(Cc2nnnn2CCCC(=O)N(C)C(C)c2ccccn2)CC1", "note": "(stereo not drawn)", "activity change, negative = growth inhibition": "inactive: 25.6%"}, {"smiles": "Cc1ccc(N2C(=O)CC(NNc3nc4ccccc4s3)C2=O)cc1", "note": "(stereo not drawn)", "Potency": "inconclusive: 16.4 µM [inhibitor, single point]"}, {"smiles": "Cc1cccc(N2CCN(C(=O)CSc3nnnn3C3CC3)CC2)c1C", "Potency": "inconclusive: 29.1 µM [inhibitor, single point]"}, {"smiles": "Cc1ccc2oc(=O)n(Cc3ccccc3)c2c1", "activity change, negative = growth inhibition": "inactive: -29.7%"}, {"smiles": "O=C(CN1C(=O)CC(c2ccco2)Sc2ccccc21)Nc1ccccc1F", "note": "(stereo not drawn)", "Potency": "inconclusive: 29.1 µM [inhibitor, single point]"}, {"smiles": "Cc1ccccc1CNC(=O)c1ccc2[nH]c(C)c(C)c2c1", "Potency": "inconclusive: 20.6 µM [inhibitor, single point]"}, {"smiles": "Cc1cc(Cl)nc(SCC(=O)c2ccccc2)n1", "activity change, negative = growth inhibition": "inactive: 14.2%"}, {"smiles": "COC(=O)[C@@H]1C[C@H]2CC[C@H](O)C[C@H]2N1Cc1ccccc1OS(=O)(=O)c1ccc(C)cc1", "Potency": "inconclusive: 18.4 µM [inhibitor, single point]"}, {"smiles": "COc1ccc(C(=O)c2ccc([N+](=O)[O-])cc2Cl)cc1", "Potency": "inconclusive: 20.6 µM [inhibitor, single point]"}, {"smiles": "COC(=O)c1ccccc1S(=O)(=O)N1CCCC(c2nc3c(nnn3Cc3ccc(C)cc3)c(=O)[nH]2)C1", "note": "(stereo not drawn)", "Potency": "inconclusive: 16.4 µM [inhibitor, single point]"}, {"smiles": "CCc1ccc(NC(=O)C(=O)NCCN2CCN(C(=O)c3ccco3)CC2)cc1", "Potency": "inconclusive: 23.1 µM [inhibitor, single point]"}, {"smiles": "O=P(c1ccccc1)(c1ccccc1)C(O)c1cccs1", "note": "(stereo not drawn)", "activity change, negative = growth inhibition": "inconclusive: -32.4% [inhibitor]"}, {"smiles": "Cc1noc(C)c1S(=O)(=O)Nc1ccc2c(c1)C(=O)N([C@@H](C)CO)C[C@H](C)[C@@H](CN(C)Cc1ccc(C(F)(F)F)cc1)OCCCC[C@H](C)O2", "Potency": "inconclusive: 29.1 µM [inhibitor, single point]"}, {"smiles": "Cc1cc(S(=O)(=O)Nc2nc(CN3CCOCC3)nc3sc4c(c23)CCCC4)ccc1F", "Potency": "inconclusive: 20.6 µM [inhibitor, single point]"}, {"smiles": "CC1=NN(C(N)=S)C(=O)C1N=Nc1cccc(C(=O)O)c1", "note": "(stereo not drawn)", "activity change, negative = growth inhibition": "inactive: 16.9%"}, {"smiles": "NCCOc1ccccc1-c1ccccc1", "Potency": "inconclusive: 18.4 µM [inhibitor, partial curve]"}, {"smiles": "COc1ccc2[nH]cc(CCNC(=O)CS(=O)(=O)Cc3ccccc3)c2c1", "activity change, negative = growth inhibition": "inactive: -1.66%"}, {"smiles": "OC1C(O)C(O)C(O)C(O)C1O", "note": "(stereo not drawn)", "Potency": "inconclusive: 18.8 µM [inhibitor, single point]"}, {"smiles": "CC(C)(C)C1CCC2(CC1)C(Nc1cccc(C(F)(F)F)c1)=NC(=S)N2CC#N", "note": "(stereo not drawn)", "Potency": "inconclusive: 20.6 µM [inhibitor, single point]"}, {"smiles": "CC1CN(c2nnc(-c3ccccc3)c3ccccc23)CC(C)O1", "note": "(stereo not drawn)", "Potency": "inconclusive: 23.1 µM [inhibitor, partial curve]"}, {"smiles": "O=C(CNC(=O)c1ccco1)Nc1ccncc1", "activity change, negative = growth inhibition": "inactive: -1.05%"}, {"smiles": "Cc1cccc(C(=O)Nc2ccc(O)cc2)c1", "Potency": "inconclusive: 29.1 µM [inhibitor, single point]"}, {"smiles": "Cc1cc(F)ccc1NC(=O)C(C)n1c2ccccc2c2nc(=O)cc(C)n21", "note": "(stereo not drawn)", "activity change, negative = growth inhibition": "inactive: -0.709%"}]}]}
